Source: PubChem BioAssay AID651820 (National Center for Advancing Translational Sciences (NCATS), 2012)
Where “and” joins values, the source holds several entries; their conditions need not be identical. Equal entries are not always repeated. About 12,000 (3.5%) of roughly 340,000 compounds were called active. Inconclusive means that the source gave no clear call. Such entries were picked first, then a sample of the others. The call rests on the fitted dose curve; in most records, active means well fitted inhibition curve with a large enough effect; inconclusive means small, poorly fitted or top-dose-only effect, or another doubt; inactive means no such curve, though single readings can be large or run the other way. Where the call is inconclusive, the potency comes from a doubtful curve fit.

test: qHTS Assay for Inhibitors of Hepatitis C Virus (HCV); conditions: Huh7.5.1 HCVcc-Cre (HCVcc is cell-culture hepatitis C virus) infection, luciferase reporter, 44 h; activity change, negative = inhibition: at 41.8 µM (top of the series) unless noted
How it was run: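 Cells seeded at 1,000/well and cultured 4 h, then compounds added followed by HCVcc-Cre virus (~0.5 moi). After 44 h further culture, luciferase substrate was added, plates held 15 min at room temperature, and luminescence read for 15 sec.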
On the % scale 0 is the no-effect control and ±100 the full control effect; potency means the concentration at half of the fitted maximal effect; tags describe the fitted curve by direction and shape.

Structure (SMILES)	Potency	activity change, negative = inhibition
CC(C)n1c(N2CCN(CC(=O)Nc3ccc4c(c3)OCCO4)CC2)nc2ccccc21	inconclusive: 5.01 µM [inhibitor, partial curve]	–
COC(=O)c1sccc1NC(=O)CN1CCN(c2ccc(F)cc2)CC1	inconclusive: 31.6 µM [inhibitor, single point]	–
CC(C)Oc1ccc(C(CC(=O)NCCCN(C)C)c2ccc(F)cc2)cc1 (centres undefined)	inconclusive: 22.4 µM [inhibitor, single point]	–
CCOC(=O)C=C(C(=O)OCC)C(=O)OCC	–	inactive: 13.8%
COc1ccc(N2CCN(C(c3cc4cc(C)ccc4[nH]c3=O)c3nnnn3Cc3ccccc3)CC2)cc1 (centres undefined)	–	inactive: -26.9%
O=C(Nc1cccc(N2C(=O)C=CC2=O)c1)c1cccs1	inconclusive: 31.6 µM [inhibitor, single point]	–
OC(CN1CCCCC1)c1ccc(Br)cc1 (centres undefined)	–	inactive: 10.3%
COc1cccc(NC(=O)CCCCCN2C(=O)[C@@H]3Cc4ccccc4CN3C2=O)c1	inconclusive: 12.6 µM [inhibitor, single point]	–
COc1ccccc1S(=O)(=O)Cc1ccc(C(=O)N2CCN(c3ccc(C)cc3)C(C)C2)o1 (centres undefined)	inconclusive: 10 µM [inhibitor, partial curve] and inconclusive: 31.6 µM [inhibitor, single point]	–
Cc1ccc2nc(NC(=S)NC(=O)c3ccc(OC(C)C)cc3)sc2c1	–	inactive: -6.48%
Cc1cc(C)cc(NC(=O)CCCN2C(=O)C(c3ccccc3)Oc3cccnc32)c1 (centres undefined)	inconclusive: 31.6 µM [inhibitor, single point]	–
Clc1ccccc1-c1ncnc2ccc(Br)cc12	inconclusive: 5.62 µM [inhibitor, single point]	–
COc1ccc(Cl)cc1NC(=O)c1ccoc1C	active: 5.62 µM	–
CC(C)Oc1ccc(S(=O)(=O)N(C(C)C)C(C)C)cn1	–	inactive: 6.77%
COc1cccc(CNC(=O)C(C)n2ccc3cc(S(=O)(=O)N4CCCC4)ccc32)c1 (centres undefined)	inconclusive: 31.6 µM [inhibitor, single point]	–
CCC(=O)NCCCNc1nc2c(C)cccc2cc1C#N	inconclusive: 11.2 µM [inhibitor, partial curve]	–
CCCCn1c(=N)c(S(=O)(=O)c2ccc(Br)cc2)cc2c(=O)n3cccc(C)c3nc21	inconclusive: 0.501 µM [inhibitor, partial curve, poor fit]	–
Cc1cccc(C)c1OCc1cc(C(=O)N2CCN(Cc3nccn3C)CC2)no1	–	inactive: -10.9%
Cc1ccc(C(=O)NCC(c2ccco2)N2CCc3ccccc32)cc1C (centres undefined)	inconclusive: 11.2 µM [inhibitor, partial curve, poor fit]	–
O=C(c1ccc(N2CCCCC2)c([N+](=O)[O-])c1)N1CCN(S(=O)(=O)c2ccccc2)CC1	inconclusive: 14.1 µM [inhibitor, single point]	–
CCN1C(=O)[C@H]2[C@@H](c3ccc(-c4ccc(OC)cc4)cc3)N3CCC[C@@]3(C(=O)OC)[C@H]2C1=O	inconclusive: 2.51 µM [inhibitor, full curve]	–
COc1ccc(CNCC(O)(c2ccccc2)c2ccc(Cl)cc2)cc1 (centres undefined)	inconclusive: 22.4 µM [inhibitor, single point]	–
O=C1OCCN1C(=O)[C@H]1[C@H](c2ccccc2)C(c2ccccc2)=NN1c1ccc(Br)cc1	–	inactive: -22.7%

Structure (SMILES)	Potency	activity change, negative = inhibition
Cc1cc(OCC(=O)NCc2cccnc2)c2c3c(c(=O)oc2c1)CCCC3	active: 10 µM	–
COc1ccccc1NC(=O)N(Cc1ccco1)Cc1cc2c(C)ccc(C)c2[nH]c1=O	inactive and inconclusive: 17.8 µM [inhibitor, single point]	–
Cc1ccc(C)c(N2CCN(C(=O)CCNC(=O)Cn3ccc4ccccc4c3=O)CC2)c1	inconclusive: 31.6 µM [inhibitor, single point]	–
CCCc1nnc(NC(=O)c2nc(S(=O)(=O)Cc3ccc(C)cc3)ncc2Cl)s1	inconclusive: 31.6 µM [inhibitor, single point]	–
COc1cc2c(cc1OC)C(c1ccccc1)N(C(=O)CCl)CC2 (centres undefined)	–	inactive: -13.6%
O=C(Nc1ccc2c(c1)OCO2)Nc1ccc(Cl)cc1Cl	inconclusive: 12.6 µM [inhibitor, partial curve]	–
O=C(CSc1ccccc1)NCc1ccco1	–	inactive: -6.14%
Cc1ccc(C#CC[N+]2(CC#Cc3ccc(C)cc3)CCCCC2)cc1	inconclusive: 12.6 µM [inhibitor, partial curve]	–
Cc1cc(-c2nc(C)c(C(=O)NNS(=O)(=O)c3ccccc3)s2)no1	–	inactive: 19.6%
CN(CC(=O)Nc1ccccc1C(=O)NC1CC1)Cc1ccc(Cl)s1	inconclusive: 35.5 µM [inhibitor, partial curve]	–
O=C(CSc1nc2ccccc2o1)Nc1nccs1	–	inactive: -1.81%
COc1ccccc1C(=O)NCCC(=O)NCCCSc1ccccc1	inconclusive: 0.891 µM [inhibitor, full curve, poor fit]	–
CCOC(=O)c1ccccc1N/C=C/C(=O)c1cccs1	inconclusive: 8.91 µM [inhibitor, partial curve]	–
Cc1cc(=O)n2c3ccccc3n(CC(O)CN3CCCCC3)c2c1C#N (centres undefined)	inconclusive: 10 µM [inhibitor, single point]	–
Cc1nc2ccccn2c1-c1ccnc(SCc2ccc(Cl)cc2)n1	inconclusive: 22.4 µM [inhibitor, single point]	–
CCOC(=O)c1cccc(-c2c(-c3ccccc3)ncc3cc(OC)c(OC)cc23)c1	inconclusive: 11.2 µM [inhibitor, partial curve]	–
CNC(=S)N(CCc1c(C)[nH]c2ccc(F)cc12)Cc1cccnc1	inconclusive: 5.01 µM [inhibitor, full curve]	–
COc1ccc(CN2CCNCC2)c(OC)c1OC	inconclusive: 31.6 µM [inhibitor, single point]	–
CCN(CC)c1ccc(NC(=O)c2cccc(OC)c2)c(C)c1	inconclusive: 11.2 µM [inhibitor, single point]	–
Nc1nc(N)c2c(ccc3nccc32)[nH]1	inconclusive: 7.08 µM [inhibitor, partial curve]	–
CN(C)CCCN(C(=O)c1ccc(S(=O)(=O)N2CCCCC2)cc1)c1nc2cc3c(cc2s1)OCO3	inconclusive: 31.6 µM [inhibitor, single point]	–
CSc1nc(O)c(C(c2ccc(F)cc2)c2c(O)nc(SC)[nH]c2=O)c(=O)[nH]1	–	inactive: 12.8%
CCN(CC)CCCCN1c2ccccc2Sc2ccccc21	inconclusive: 22.4 µM [inhibitor, single point]	–

Structure (SMILES)	Potency	activity change, negative = inhibition
COc1ccccc1OCC(=O)Nc1cc(C(F)(F)F)ccc1-n1cncn1	–	inactive: -7.69%
CCN(c1ccccc1)S(=O)(=O)c1ccc(NN)nc1	inconclusive: 31.6 µM [inhibitor, single point]	–
Cc1ccc(C)c(SCC(=O)Nc2oc(C)c3c(C)n[nH]c(=O)c23)c1	–	inactive: 3.76%
COc1ccc(-c2cc(C(F)(F)F)nc(N3CCOCC3)n2)cc1OC	active: 3.16 µM	–
O=C1NC[C@H](Cc2ccccc2)N(C[C@H]2CCCN2C[C@H](Cc2ccccc2)N2C[C@H](Cc3ccc(O)cc3)N(CC3CCCCCC3)C(=O)C2=O)C1=O	inconclusive: 22.4 µM [inhibitor, single point]	–
CN1CCN(c2ccc(NC(=O)c3ccccc3)cc2)CC1	–	inactive: 6.63%
CCn1c(SCc2nc3ccccc3c(=O)[nH]2)nnc1C(C)NC(=O)c1ccccc1 (centres undefined)	–	inactive: -7.75%
COc1cc(OC)cc(C(=O)NC(=S)Nc2cc3oc4ccccc4c3cc2OC)c1	active: 1.78 µM	–
COC(=O)c1ccccc1NC(=O)c1ccc(-c2cccc(Cl)c2)o1	inconclusive: 5.62 µM [inhibitor, partial curve, poor fit]	–
COc1ccc(C)cc1NC(=O)NC1CCCc2ccccc21 (centres undefined)	inconclusive: 2.82 µM [inhibitor, single point]	–
CC(C)(C)NC(=O)C(c1c[nH]c2ccccc12)N(C(=O)Cn1nnc(-c2ccc(Cl)cc2)n1)c1ccccc1F (centres undefined)	active: 10 µM	–
COc1ccc(Cl)cc1NC(=O)COC(=O)c1ccc(C)o1	inconclusive: 31.6 µM [inhibitor, single point]	–
O=C(Cn1cc2c(n1)CCCC2)NCc1cccs1	–	inactive: 7.73%
COc1cc(Cl)ccc1OCc1cc(C(=O)N(C)Cc2cn(C)nc2C)no1	inconclusive: 1.78 µM [inhibitor, full curve, poor fit]	–
CCN1C/C(=C/c2ccc(N3CCOCC3)cc2)C(=O)/C(=C/c2ccc(N3CCOCC3)cc2)C1	inconclusive: 31.6 µM [inhibitor, single point]	–
CCCC(=O)Nc1nc2c(OC)ccc(OC)c2s1	active: 8.91 µM	–
CCOC(=O)c1c(NC(=O)COC(=O)c2ccc(NC(=O)CC#N)cc2)sc(C(=O)NC)c1C	inconclusive: 2.24 µM [inhibitor, full curve]	–
O=C(CN1CCN(C2CCCCC2)CC1)Nc1ccc(Br)cc1	active: 10 µM	–
CSc1nc(Sc2ccccc2)c2ccccc2n1	active: 4.47 µM	–
C/C(=N/NC(=O)CSCc1ccc(Cl)cc1)c1cccc(NC(=O)c2ccccc2)c1	inconclusive: 5.62 µM [inhibitor, single point]	–
Fc1c(F)c(F)c(CSc2nc3ccccc3[nH]2)c(F)c1F	inconclusive: 31.6 µM [inhibitor, single point]	–
COC(=O)[C@@]12CCCCN1[C@H](c1ccc(-c3ccc(OC)cc3)cc1)[C@@H]1C(=O)N(C)C(=O)[C@@H]12	–	inactive: -0.441%
CCOc1ccc(OCCC(=O)OCC(=O)N(CC)c2c(N)n(Cc3ccccc3)c(=O)[nH]c2=O)cc1	–	inactive: 11.4%
